This passage reports binding signal (RPM ratio (pull-down/input)) results from publication PMC12820563.

The list shows a part of the results. The list includes weakly bound sequences.

In the assay the target is T1, MBP-FoxP3dN (UniProt Q99JB6).
T1 sequence: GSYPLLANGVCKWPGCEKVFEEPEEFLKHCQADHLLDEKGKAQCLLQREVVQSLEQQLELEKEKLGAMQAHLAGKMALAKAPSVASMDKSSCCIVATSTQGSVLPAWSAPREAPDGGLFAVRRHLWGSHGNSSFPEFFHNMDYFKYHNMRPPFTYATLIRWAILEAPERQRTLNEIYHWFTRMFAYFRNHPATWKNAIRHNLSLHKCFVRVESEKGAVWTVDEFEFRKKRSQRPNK
Description: PD-seq (MBP pull-down with sequencing). The settings on record: 20 mM Tris-HCl pH 7.5, 100 mM NaCl, 1.5 mM MgCl2, 0.4 uM protein, 0.1 uM dsDNA library, 30 min, room temperature, amylose pull-down; high values mean tight binding; double strand, one strand shown.
In the case of “GATGATTGTTCTCCCAGCTGATGAATTTCCAAATTCGAGTAAACAAATTTTCCTAATCTTTCTGTTCAAGCGCCATCTAC”, the binding signal (RPM ratio (pull-down/input)) is 0.207. The same measure for “GATGATTGTTCTCCCAGCTGATGAATTATAGCGTTCGAGTAAACAAATTTTCCTAATCTTTCTGTTCAAGCGCCATCTAC”: 1.27; for “GATGATTGTTCTCCCAGCTGATGAATTCAACTTCTCGAGTAAACAAATTTTCCTAATCTTTCTGTTCAAGCGCCATCTAC”: 0.303. Take “GATGATTGTTCTCCCAGCTGATGAATTATCGATGTCGAGTAAACAAATTTTCCTAATCTTTCTGTTCAAGCGCCATCTAC”: the binding signal (RPM ratio (pull-down/input)) came to 0.472. As for “GATGATTGTTCTCCCAGCTGATGAATTATTGACCTCGAGTAAACAAATTTTCCTAATCTTTCTGTTCAAGCGCCATCTAC”, the binding signal (RPM ratio (pull-down/input)) came out at 1.05.

With “GATGATTGTTCTCCCAGCTGATGAATTTGATAAGTCGAGTAAACAAATTTTCCTAATCTTTCTGTTCAAGCGCCATCTAC”, the binding signal (RPM ratio (pull-down/input)) stood at 0.369.

On to “GATGATTGTTCTCCCAGCTGATGAATTGAGTGCGTCGAGTAAACAAATTTTCCTAATCTTTCTGTTCAAGCGCCATCTAC”, for which the binding signal (RPM ratio (pull-down/input)) turned out to be 0.911. As for “GATGATTGTTCTCCCAGCTGATGAATTTCCGCTGTCGAGTAAACAAATTTTCCTAATCTTTCTGTTCAAGCGCCATCTAC”, the binding signal (RPM ratio (pull-down/input)) was 0.336.

As to “GATGATTGTTCTCCCAGCTGATGAATTCTATTTCTCGAGTAAACAAATTTTCCTAATCTTTCTGTTCAAGCGCCATCTAC”, the binding signal (RPM ratio (pull-down/input)) is 1.19.

In the case of “GATGATTGTTCTCCCAGCTGATGAATTGCAGTAATCGAGTAAACAAATTTTCCTAATCTTTCTGTTCAAGCGCCATCTAC”, the binding signal (RPM ratio (pull-down/input)) was determined as 1.01.

Turning to “GATGATTGTTCTCCCAGCTGATGAATTTCTTCGTTCGAGTAAACAAATTTTCCTAATCTTTCTGTTCAAGCGCCATCTAC”, the binding signal (RPM ratio (pull-down/input)) amounted to 0.236. The same measure for “GATGATTGTTCTCCCAGCTGATGAATTTACACTTTCGAGTAAACAAATTTTCCTAATCTTTCTGTTCAAGCGCCATCTAC”: 0.702. Consider “GATGATTGTTCTCCCAGCTGATGAATTCGAGTCATCGAGTAAACAAATTTTCCTAATCTTTCTGTTCAAGCGCCATCTAC”, for which the binding signal (RPM ratio (pull-down/input)) worked out at 0.592.

“GATGATTGTTCTCCCAGCTGATGAATTTTGACTGTCGAGTAAACAAATTTTCCTAATCTTTCTGTTCAAGCGCCATCTAC”: the binding signal (RPM ratio (pull-down/input)) was found to be 1.13. As for “GATGATTGTTCTCCCAGCTGATGAATTAACTGAATCGAGTAAACAAATTTTCCTAATCTTTCTGTTCAAGCGCCATCTAC”, the binding signal (RPM ratio (pull-down/input)) stood at 0.228. The same measure for “GATGATTGTTCTCCCAGCTGATGAATTCCATGCATCGAGTAAACAAATTTTCCTAATCTTTCTGTTCAAGCGCCATCTAC”: 0.979. For “GATGATTGTTCTCCCAGCTGATGAATTCGGCTCCTCGAGTAAACAAATTTTCCTAATCTTTCTGTTCAAGCGCCATCTAC”, the binding signal (RPM ratio (pull-down/input)) was determined as 0.758. The same measure for “GATGATTGTTCTCCCAGCTGATGAATTGGGCTCCTCGAGTAAACAAATTTTCCTAATCTTTCTGTTCAAGCGCCATCTAC”: 0.659. “GATGATTGTTCTCCCAGCTGATGAATTGGCAGGCTCGAGTAAACAAATTTTCCTAATCTTTCTGTTCAAGCGCCATCTAC”: the binding signal (RPM ratio (pull-down/input)) amounted to 0.317. Consider “GATGATTGTTCTCCCAGCTGATGAATTACAACGCTCGAGTAAACAAATTTTCCTAATCTTTCTGTTCAAGCGCCATCTAC”, for which the binding signal (RPM ratio (pull-down/input)) stood at 0.565. For “GATGATTGTTCTCCCAGCTGATGAATTAATCGAGTCGAGTAAACAAATTTTCCTAATCTTTCTGTTCAAGCGCCATCTAC”, the binding signal (RPM ratio (pull-down/input)) turned out to be 0.273. With “GATGATTGTTCTCCCAGCTGATGAATTGGAAAGTTCGAGTAAACAAATTTTCCTAATCTTTCTGTTCAAGCGCCATCTAC” the figure was 0.162; with “GATGATTGTTCTCCCAGCTGATGAATTCTACTATTCGAGTAAACAAATTTTCCTAATCTTTCTGTTCAAGCGCCATCTAC”, 0.531; with “GATGATTGTTCTCCCAGCTGATGAATTCAGTTGTTCGAGTAAACAAATTTTCCTAATCTTTCTGTTCAAGCGCCATCTAC”, 4.73. With “GATGATTGTTCTCCCAGCTGATGAATTGCCATCGTCGAGTAAACAAATTTTCCTAATCTTTCTGTTCAAGCGCCATCTAC”, the binding signal (RPM ratio (pull-down/input)) was determined as 0.955. Consider “GATGATTGTTCTCCCAGCTGATGAATTGAGCACGTCGAGTAAACAAATTTTCCTAATCTTTCTGTTCAAGCGCCATCTAC”, for which the binding signal (RPM ratio (pull-down/input)) amounted to 0.919. Regarding “GATGATTGTTCTCCCAGCTGATGAATTCGCCTACTCGAGTAAACAAATTTTCCTAATCTTTCTGTTCAAGCGCCATCTAC”, the binding signal (RPM ratio (pull-down/input)) came to 0.545. For “GATGATTGTTCTCCCAGCTGATGAATTGTTCTACTCGAGTAAACAAATTTTCCTAATCTTTCTGTTCAAGCGCCATCTAC”, the binding signal (RPM ratio (pull-down/input)) is 0.433. Consider “GATGATTGTTCTCCCAGCTGATGAATTTACAATTTCGAGTAAACAAATTTTCCTAATCTTTCTGTTCAAGCGCCATCTAC”, for which the binding signal (RPM ratio (pull-down/input)) came to 0.441. On to “GATGATTGTTCTCCCAGCTGATGAATTGTTTGGGTCGAGTAAACAAATTTTCCTAATCTTTCTGTTCAAGCGCCATCTAC”, for which the binding signal (RPM ratio (pull-down/input)) came out at 4.43.

Consider “GATGATTGTTCTCCCAGCTGATGAATTTCACGTGTCGAGTAAACAAATTTTCCTAATCTTTCTGTTCAAGCGCCATCTAC”, for which the binding signal (RPM ratio (pull-down/input)) came out at 0.496.

On to “GATGATTGTTCTCCCAGCTGATGAATTGAGATCGTCGAGTAAACAAATTTTCCTAATCTTTCTGTTCAAGCGCCATCTAC”, for which the binding signal (RPM ratio (pull-down/input)) turned out to be 0.315. On to “GATGATTGTTCTCCCAGCTGATGAATTAAATTCTTCGAGTAAACAAATTTTCCTAATCTTTCTGTTCAAGCGCCATCTAC”, for which the binding signal (RPM ratio (pull-down/input)) came to 0.406. “GATGATTGTTCTCCCAGCTGATGAATTAATATTCTCGAGTAAACAAATTTTCCTAATCTTTCTGTTCAAGCGCCATCTAC”: the binding signal (RPM ratio (pull-down/input)) amounted to 0.859. For “GATGATTGTTCTCCCAGCTGATGAATTACCAAGCTCGAGTAAACAAATTTTCCTAATCTTTCTGTTCAAGCGCCATCTAC”, the binding signal (RPM ratio (pull-down/input)) amounted to 0.305. In the case of “GATGATTGTTCTCCCAGCTGATGAATTCACCGAGTCGAGTAAACAAATTTTCCTAATCTTTCTGTTCAAGCGCCATCTAC”, the binding signal (RPM ratio (pull-down/input)) came to 0.204. With “GATGATTGTTCTCCCAGCTGATGAATTCTGTCTATCGAGTAAACAAATTTTCCTAATCTTTCTGTTCAAGCGCCATCTAC”, the binding signal (RPM ratio (pull-down/input)) is 2.88. In the case of “GATGATTGTTCTCCCAGCTGATGAATTGTCCCCGTCGAGTAAACAAATTTTCCTAATCTTTCTGTTCAAGCGCCATCTAC”, the binding signal (RPM ratio (pull-down/input)) came out at 0.293. Turning to “GATGATTGTTCTCCCAGCTGATGAATTGAGGCTTTCGAGTAAACAAATTTTCCTAATCTTTCTGTTCAAGCGCCATCTAC”, the binding signal (RPM ratio (pull-down/input)) was 1.16. With “GATGATTGTTCTCCCAGCTGATGAATTTCGCCCTTCGAGTAAACAAATTTTCCTAATCTTTCTGTTCAAGCGCCATCTAC”, the binding signal (RPM ratio (pull-down/input)) amounted to 1.46.
